# Data reported in PubChem BioAssay AID1240 (Sanford-Burnham Center for Chemical Genomics, 2008).
# The campaign covered roughly 50,000 compounds. About 800 (1.6%) showed an effect of 50% or more. The list shows a part of the results.
# Biological target: Bcl-2-like protein 10 (Homo sapiens) (UniProt Q9HD36)
# Test: Phenotype converters, Bcl-B/TR3 peptide binding displacement, primary biochemical FP (AID 1240);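 also: 0% = Bcl-B with tracer peptide and DMSO and 100% = tracer peptide lacking Bcl-B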
# Conditions: GST-Bcl-B / FITC-TR3 peptide fluorescence polarization; stronger effect = higher value; compound at 3.75 mg/L
# Chain of UniProt Q9HD36 (Q9HD36 whole entry, looked up): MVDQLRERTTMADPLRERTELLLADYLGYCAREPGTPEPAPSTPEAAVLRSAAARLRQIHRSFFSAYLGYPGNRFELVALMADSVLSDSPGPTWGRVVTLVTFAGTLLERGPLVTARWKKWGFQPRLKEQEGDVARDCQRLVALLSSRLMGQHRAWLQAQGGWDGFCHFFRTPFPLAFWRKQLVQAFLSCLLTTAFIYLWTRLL
row,Compound,displacement [%]
1,Cc1cc(Cl)ccc1OCC(O)CNC(C)C (stereo unspecified),1.1
2,O=C1NC(=S)S/C1=C/c1ccc(OCc2ccc(F)cc2)c(Br)c1,20.2
3,CCc1cc2c(-c3ccccc3)cc(=O)oc2cc1OC(C)C(=O)O (stereo unspecified),10.7
4,Cc1cc(Cl)ccc1OCc1nc(-c2cccc([N+](=O)[O-])c2)no1,-6
5,O=C1CCCN1CCCN=Cc1c(O)[nH]c(=O)[nH]c1=O,-13.2
6,COc1cc(C=Nc2ccc(S(N)(=O)=O)cc2)ccc1O,2
7,COC(C(=O)N1CCCCCC1)(c1ccccc1)c1ccccc1,16.8
8,C=CCn1c(SCC(=O)NCc2ccco2)nc2sc3c(c2c1=O)CCCC3,4.4
9,Oc1ccc(Br)cc1CN1CCN(Cc2cccc3ccccc23)CC1,5.8
10,CC(C)(C#N)NCCCCCCNC(C)(C)C#N,1.5
11,C#CCSc1nc2sc3c(c2c(=O)[nH]1)CCCC3,-7.5
12,NC(=O)c1cccc(NC(=O)/C=C/C(=O)O)c1,-3.4
13,CCOC(=O)c1c(-c2ccccc2)c[nH]c1C,4.3
14,Cc1ccc(OCC(=O)Nc2ccc(O)c(-c3nc4cc(C)c(C)cc4o3)c2)cc1C,5
15,CCOC(=O)N/N=C(\C)c1ccc(O)cc1O,-1.5
16,NC(=O)c1cccc(N=Cc2ccc([N+](=O)[O-])cc2)c1,-6.6
17,COc1ccc(C2/C(=C(\O)c3ccccc3)C(=O)C(=O)N2c2cccc(Cl)c2)cc1OC (stereo unspecified),7
18,Cc1ccc(NC(=O)COc2cccc(C)c2C)c(Br)c1,-1.9
19,CC(=O)Nc1ccc(C(=O)CSc2ncn(-c3ccccc3)n2)cc1,14.7

row,Compound,displacement [%]
1,COc1ccc(-c2nnc(Nc3ccc(O)cc3)c3ccccc23)cc1,2.4
2,CC(C)C(C(=O)O)N1C(=O)/C(=C/c2ccc(F)cc2)SC1=S (stereo unspecified),3.8
3,O=C(O)c1cc(N2C(=O)C=CC2=O)ccc1Cl,-0.2
4,CC(Oc1ccccc1)C(=O)Nc1cccc(Br)c1 (stereo unspecified),9.9
5,O=C1N=c2ccccc2=C1c1sc(=S)[nH]c1O,2.4
6,Cc1ccc(S(=O)(=O)Nc2cc(C)c(O)c(S(=O)(=O)c3ccc(C)cc3)c2)cc1,-2.2
7,O=C(c1cc(-c2cccc(Br)c2)nc2ccccc12)N1CCCCCC1,31.8
8,COc1ccc(C(=O)CSc2nc3ccccc3c(=O)[nH]2)cc1,13.6
9,Cc1c(C2N3CC4(C)CN2CC(C)(C3)C4=O)c2ccccc2n1C (stereo unspecified),-2.1
10,Cc1ccc(/C=N/NC(=S)NC2CCS(=O)(=O)C2)cc1 (stereo unspecified),1.5
11,O=C1CS/C(=N/S(=O)(=O)c2ccccc2)N1,5.1
12,O=C(NCCN1CCN(S(=O)(=O)c2ccccc2)CC1)C(=O)Nc1ccc(Br)cc1,12.4
13,C=CCOc1ccc(/C=C2\C(=O)N(Cc3ccco3)C(C)=C2C(=O)OC)cc1OC,-11.7
14,COc1ccc(CCNC(=O)Nc2cc(F)c(F)cc2Cl)cc1OC,21.5
15,Cc1cccc(N2C(=O)S/C(=C\c3ccccc3)C2=O)c1,12.3
16,COc1ccc(/C=C2/SC(=Nc3ccccc3Cl)NC2=O)c2ccccc12,7
17,CCOc1cc(C(=O)NCc2ccccc2OC)cc(OCC)c1OCC,15.4
18,CCN(CC)c1ccc(/C=C(\C#N)C(=O)NC)cc1,-6.7
19,CCC(=O)N(CCc1ccccc1)C1CC(=O)N(c2ccc(OC)cc2)C1=O (stereo unspecified),-9

row,Compound,displacement [%]
1,O=C(Nc1ccc(Cl)c(C(F)(F)F)c1)c1cccc(Br)c1,2.7
2,Cc1ccc(NCCC(=O)c2ccc(Br)cc2)cc1,-20.1
3,Oc1cc(N=C/C=C/c2cccc(Br)c2)ccc1-c1nc2ccccc2o1,3.7
4,COc1ccc(C(=O)Oc2cccc(C(=S)N3CCOCC3)c2)cc1,10.9
5,COc1ccc(C2CC(C(F)(F)F)n3nc(C(=O)N4CCN(c5ccc(F)cc5)CC4)c(Cl)c3N2)cc1OC (stereo unspecified),13.8
6,COc1ccc(OCC(=O)Nc2ccc3c(c2)OCCO3)cc1,11.4
7,O=C(Nc1ccc(Br)cc1)C1CN(S(=O)(=O)c2ccccc2)CCN1S(=O)(=O)c1ccccc1 (stereo unspecified),0.1
8,O=C(Oc1ccccc1C(=S)N1CCOCC1)c1ccc(Br)cc1,11.6
9,Cc1cc(=O)oc2cc3c(cc12)OCCO3,19.9
10,CCc1ccccc1NC1=C(Cl)C(=O)N(c2ccc(OC)cc2)C1=O,14.4
11,CCOC(=O)C1=C(O)/C(=C/c2ccc(OC)cc2)SC1=Nc1ccccc1,7.6
12,COc1cccc(NC(=O)C(=O)NCc2cccnc2)c1,8.5
13,Cc1cccc(C2(c3cccc(C)c3)CC2C(=O)NC(C)C)c1 (stereo unspecified),5.1
14,C=CCn1c(SCC(=O)N(CC)CC)nc(O)c(Cc2ccccc2)c1=O,-6
15,Cc1ccc(N2CC(C(=O)Nc3cc(C)ccc3F)CC2=O)cc1 (stereo unspecified),5.2
16,COc1cc(-c2nnc3ccc4ccccc4n23)ccc1Oc1ccc([N+](=O)[O-])cc1,-3
17,CC(=O)Nc1ccc(-c2nc3ccc(-c4ccc5nc(-c6ccc(NC(C)=O)cc6)oc(=O)c5c4)cc3c(=O)o2)cc1,-3.3
18,COc1ccc(/C=C/C(=O)Nc2ccc(Br)cc2C(=O)c2cc(OC)c(OC)c(OC)c2)cc1OC,1.6
